Assay results taken from PubChem BioAssay AID686979 (National Center for Advancing Translational Sciences (NCATS), 2013).
“And” between values parts separate entries of the source, which are not always exact repeats. Equal values may be shown once. The whole screen tested about 420,000 compounds, of which about 50,000 (12%) were called active. Inconclusive means that the source gave no clear call. Such entries were picked first, then a sample of the others. Calls come from the whole dose curve; as a rule, active = well fitted inhibition curve with a large enough effect; inconclusive = small, poorly fitted or top-dose-only effect; inactive = flat fitted curve, though single readings scatter. Potencies of inconclusive entries are doubtful fits and often do not repeat.

Experiment: qHTS for Inhibitors of human tyrosyl-DNA phosphodiesterase 1 (TDP1): qHTS in cells in presence of CPT; note: nearly all actives have a fitted effect of over 55% in size
Details: chicken DT40 Tdp1-/-;hTDP1 cells + 20 nM CPT, ATP luminescence, 48 h; activity change, negative = growth inhibition: at 46.2 µM (top of the series) unless noted
Procedure, shortened: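 Chicken DT40 Tdp1-/- cells stably complemented with human TDP1 were seeded at 400 cells/well in medium containing 20 nM camptothecin, exposed to pin-transferred compounds, and grown at 37 °C for at least 48 hr. Viability was read as ATP luminescence.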
% is set by controls: 0 for no effect and ±100 for the full control effect; potency is the fitted concentration of half-maximal effect; tags give direction and shape of the fitted curve.

Structure (SMILES)	Potency	activity change, negative = growth inhibition
CCNC(=S)N(CCN(CC)CC)Cc1cc2cc3c(cc2[nH]c1=O)OCCO3	inconclusive: 18.4 µM [inhibitor, single point]	–
COc1cc2c(cc1OC)C1=CC(=O)C(=O)N1C(C)(C)C2	inconclusive: 29.1 µM [inhibitor, single point]	–
O=C(Nc1ccccc1)c1ccc(-c2ccc(Br)cc2)o1	inconclusive: 23.1 µM [inhibitor, single point]	–
OC(CN1CCN(c2ncc(C(F)(F)F)cc2Cl)CC1)c1ccccc1 (stereo unspecified)	inconclusive: 18.4 µM [inhibitor, single point]	–
Cc1nnc(NC(=O)CSc2nc3c([nH]c4ccccc43)c(=O)n2-c2ccc(Cl)cc2)s1	inconclusive: 29.1 µM [inhibitor, single point]	–
CC(N=c1ccccn1C(=O)Nc1ccc(Cl)cc1)c1ccco1 (stereo unspecified)	–	inconclusive: -30% [inhibitor]
Cc1cc(C)cc(NC(=O)c2cc(S(=O)(=O)NCCC3=CCCCC3)ccc2F)c1	inconclusive: 29.1 µM [inhibitor, single point]	–
O=C1C=C(c2cccc3c2oc2ccccc23)C[C@@H](c2ccc(F)cc2)C1	inconclusive: 18.4 µM [inhibitor, single point]	–
CC(=O)N1CCc2cc(S(=O)(=O)NC(C(=O)NC3CCCc4ccccc43)C(C)C)ccc21 (stereo unspecified)	inconclusive: 10.3 µM [inhibitor, partial curve]	–
Cc1cccc(NC(=S)NCCC(C)C)c1	inactive	–
CCN(CC)S(=O)(=O)c1ccc(NC2c3ccccc3C(=O)N2Cc2ccc3c(c2)OCO3)cc1 (stereo unspecified)	active: 16.4 µM	–
COc1ccc(-c2noc3c2-c2nc(-c4ccccc4Cl)sc2CC3)cc1	inconclusive: 25.9 µM [inhibitor, single point]	–
CCN(CC)CCCNC(=O)c1ccc2c(=O)n(Cc3ccc4c(c3)OCO4)c(=S)[nH]c2c1	inconclusive: 20.6 µM [inhibitor, single point]	–
Cc1cccc(N2CCN(c3ccc4cc(S(=O)(=O)N5CCCCC5)ccc4n3)CC2)c1C	active: 11.6 µM	–
Cc1ccc(S(=O)(=O)Nc2cccc(C(=O)N3CCCC3)c2)cc1F	inconclusive: 32.6 µM [inhibitor, single point]	–
C[C@@H]1CCCCO[C@H](CN(C)C(=O)Nc2ccc3c(c2)OCO3)[C@H](C)CN([C@@H](C)CO)C(=O)c2cc(NS(=O)(=O)c3ccc(Cl)cc3)ccc2O1	active: 16.4 µM	–
O=C(Nc1ccccc1C(=O)Nc1ccccn1)c1ccc([N+](=O)[O-])cc1	inactive	–
CN(CC(=O)Nc1ccccc1N1CCOCC1)S(=O)(=O)c1ccc(Cl)cc1	active: 20.6 µM	–
Cc1ccccc1/C=N/NC(=O)c1sccc1C	inconclusive: 10.3 µM [inhibitor, partial curve, poor fit]	–
CSc1ccccc1NC(=O)c1cc(Cl)sc1Cl	inactive	–
CC(=O)Nc1cc(C(=O)NCc2ccccc2Cl)ccc1Sc1ccc(F)cc1	inconclusive: 18.4 µM [inhibitor, single point]	–
COc1cccc(C2CC(c3cccs3)=NN2C(=O)CCC(=O)O)c1OC (stereo unspecified)	inactive	–

Structure (SMILES)	Potency	activity change, negative = growth inhibition
CCCCC1C(=O)CC[C@H]2[C@@H]1CC(=O)[C@@H]2C/C=C\CCCC(=O)O (stereo partly specified)	inconclusive: 29.1 µM [inhibitor, single point]	–
C/C=C(\C)C(=O)Nc1cccc(C2=NOC3(C2)C[C@H](C(N)=O)N(C(=O)C(c2ccccc2)c2ccccc2)C3)c1 (stereo partly specified)	inconclusive: 29.1 µM [inhibitor, single point]	–
O=C(COC(=O)CSc1ccc([N+](=O)[O-])cc1)NCCCc1ccccc1	active: 14.6 µM	–
NCCC(O)C(=O)NC1C[C@@H](N)[C@H](O[C@@H]2OC(CN)C(O)C(O)C2O)C(O)[C@H]1O[C@H]1OC(CO)C(O)C(N)C1O (stereo partly specified)	inactive	–
Cc1cccc(C(=O)Nc2ccc3oc(-c4cccc5c(Br)cccc45)nc3c2)c1	inconclusive: 29.1 µM [inhibitor, single point]	–
CCOc1cccc2cc(C(=O)NC(C)c3ccccc3)c(=N)oc12 (stereo unspecified)	inconclusive: 29.1 µM [inhibitor, single point]	–
C/C(=N/NC(=O)CNS(=O)(=O)c1ccccc1)c1ccc(Br)cc1	inactive	–
CSc1c(CC(=O)Nc2ccccc2C(F)(F)F)n(Cc2ccccc2)c2ccccc12	inconclusive: 20.6 µM [inhibitor, partial curve]	–
COc1ccc2c(c1)OC(O)(C(F)(F)F)CC2=O (stereo unspecified)	inactive	–
Cc1ccc(NC(=O)Cn2c(O)c(N=NC(=O)c3ccncc3)c3ccccc32)cc1	inconclusive: 29.1 µM [inhibitor, single point]	–
CCOC(=O)c1ccc(Oc2nc(NC(C)(C)C)nc(N(C)C)n2)cc1	active: 13 µM	–
CCOC(=O)c1ccc(NC(=O)C2(c3ccc(OC)cc3)CCCC2)cc1	inactive	–
COc1ccc(N2CCN(C(c3cccs3)C(C)NS(=O)(=O)c3ccccc3)CC2)cc1 (stereo unspecified)	active: 20.6 µM	–
NC(c1csc(Nc2cc(Oc3ccccc3)ncn2)n1)c1ccccc1Cl (stereo unspecified)	inconclusive: 29.1 µM [inhibitor, partial curve, poor fit]	–
Cc1ccccc1-c1csc(C(O)c2ccc(F)c(F)c2)n1 (stereo unspecified)	inconclusive: 20.6 µM [inhibitor, single point]	–
CCOC(=O)C(Oc1ccc2c(-c3ccc(OC)cc3)cc(=O)oc2c1C)c1ccccc1 (stereo unspecified)	active: 16.4 µM	–
CCC(C)Sc1nc2c(c(=O)n1C)SC(C)C2 (stereo unspecified)	inconclusive: 25.9 µM [inhibitor, single point]	–
S=C(NCCc1c[nH]c2ccccc12)NC1CCCCC1	inconclusive: 23.1 µM [inhibitor, single point]	–
Cc1ccc(-c2cc(-c3ccc4c(c3)NC(=O)CO4)nc3c2COc2ccccc2-3)cc1	active: 5.17 µM	–
Cc1ccc(Cl)cc1-c1cc(C(=O)NCC2CCCCC2)[nH]n1	inconclusive: 20.6 µM [inhibitor, single point]	–
CCN1/C(=C2/OC(=S)N(C)C2=O)Sc2ccccc21	inconclusive: 1.84 µM [inhibitor, partial curve, poor fit]	–
CCOC(=O)COc1ccc2c(c1)c(C(=O)OCC)c(C)n2CC	inactive	–

Structure (SMILES)	Potency	activity change, negative = growth inhibition
Cc1ccc(C)c(NC(=O)CCC(=O)NNC(=O)COc2cc(C)ccc2C)c1	inactive	–
C=CCNC(=O)Nc1cc(Cl)ccc1OC	inconclusive: 14.6 µM [inhibitor, partial curve]	–
CCCOc1ccc(Br)cc1/C=N/O	inconclusive: 20.6 µM [inhibitor, single point]	–
Cc1c(CCC(=O)NCCc2ccccc2)c(=O)oc2cc(O)ccc12	inconclusive: 10.3 µM [inhibitor, partial curve]	–
O=S(=O)(c1ccc(F)cc1)N1CCN(c2nc(-c3ccccc3)nc3ccccc23)CC1	inconclusive: 35.5 µM [inhibitor, single point]	–
O=C1OC(c2cccc([N+](=O)[O-])c2)C2(CCCC2)C(=O)C12CCCCC2 (stereo unspecified)	active: 23.1 µM	–
COc1cccc(C(C(=O)NC2CCCC2)N(Cc2ccccc2OC)C(=O)c2ccco2)c1 (stereo unspecified)	inconclusive: 29.1 µM [inhibitor, single point]	–
COc1ccc2c(c1)c1c(c(=O)n(-c3ccc(F)c(Cl)c3)c(=O)n1Cc1cccc(C)c1)n2C	inconclusive: 2.31 µM [inhibitor, partial curve]	–
O=C1/C(=C/c2cccnc2)Oc2cc(OS(=O)(=O)c3ccc(Cl)cc3)ccc21	inconclusive: 20.6 µM [inhibitor, single point]	–
C/C(=N\Nc1ccc(Cl)cc1)c1ccccn1	inconclusive: 25.9 µM [inhibitor, partial curve]	–
CN(C(=O)COC(=O)c1nc(Cl)c(Cl)c(Cl)c1Cl)C1CCS(=O)(=O)C1 (stereo unspecified)	active: 20.6 µM	–
CCOc1nc2c(c(=O)n(C)c(=O)n2C)n1Cc1ccccc1Cl	active: 16.4 µM	–
Cc1cc(C)c2c(CC(=O)Nc3ccc(F)cc3)coc2c1	inconclusive: 7.31 µM [inhibitor, full curve, poor fit]	–
O=C(/C=C\Nc1cccc(F)c1)c1ccc2c(c1)OCO2	inconclusive: 32.6 µM [inhibitor, single point]	–
CCCCCCCCN1[C@@H](CC(=O)OC)c2cc(C(F)(F)F)ccc2S1(=O)=O	inconclusive: 35.5 µM [inhibitor, single point] and inconclusive: 13 µM [inhibitor, single point]	–
CCN1CCN(Cc2ccc(NC(=O)c3cc(NC(=O)c4nccnc4N)cc(OC)c3)cc2C(F)(F)F)CC1	inconclusive: 29.1 µM [inhibitor, single point]	–
COc1cc(OC)nc(C(NC(=O)C2CCN(Cc3ccc(N(C)C)cc3)CC2)c2ccc(F)cc2)n1 (stereo unspecified)	inconclusive: 25.9 µM [inhibitor, single point]	–
CC(C)C[C@H]1CN=C(Nc2ccccc2)N1CC1CCCCCC1	inconclusive: 29.1 µM [inhibitor, single point]	–
Cc1cccc(CNc2ncc(-c3cccc([N+](=O)[O-])c3)n2C)c1	inconclusive: 18.4 µM [inhibitor, partial curve]	–
CCc1ccc(N(C(=O)c2ccoc2C)C(C(=O)NC2CCCC2)c2ccc(OC)cc2)cc1 (stereo unspecified)	active: 23.1 µM	–
CC(C)(Oc1ccc(Cl)cc1)C(=O)NCC(c1cccs1)N1CCOCC1 (stereo unspecified)	inconclusive: 29.1 µM [inhibitor, single point]	–
Cn1c(CSc2nc3ccccc3s2)nnc1SCC(=O)NCc1ccccn1	inactive	–
